Data taken from PubChem BioAssay AID757 (NMMLSC, 2007).
Screen size: about 190,000 compounds; about 520 (0.27%) were called active. The inconclusive results got no clear call from the source; some entries with a clear call stand among them for comparison.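 Rule for the calls: active = GTP binding activity at least 20 points away from the 100% control level, either lower or higher; inconclusive = compound flagged as likely green fluorescent, judged across all proteins; inactive = the rest.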

Target: Ras-related C3 botulinum toxin substrate 1 (Homo sapiens) (UniProt P63000)
Assay: wildtype Rac1 GTP binding modulators, primary screen, biochemical, GST-Rac1 beads, flow cytometry, multiplex (AID 757)
Conditions: fluorescent GTP binding, at 10 µM, actives lie on both sides, 0 = cold GTP competed, 100 = untreated

Row | SMILES | GTP binding activity (% of control)
1 | CC(C)NC(=O)NC(=O)CN1C(=O)NC(Cc2c[nH]c3ccccc23)C1=O (stereo not given) | inactive: 95%
2 | CCOC(=O)c1c(C)[nH]c(C(=O)COC(=O)/C=C/c2ccc(OCC#N)c(OC)c2)c1C | inactive: 98%
3 | CC1CCC2(CC1)NC(=O)N(Cc1cccc(C(F)(F)F)c1)C2=O (stereo not given) | inconclusive: 95%
4 | COc1ccc(S(=O)(=O)N(CC(=O)N/N=C/c2cccs2)c2cc(C)cc(C)c2)cc1OC | inactive: 104%
5 | O=C1c2cccc3cccc(c23)C(=O)N1CCCCCc1n[nH]c(=S)o1 | inconclusive: 80%
6 | CCN(CC)c1ccc(/C=C(\C#N)C(=O)c2ccc(Br)cc2)cc1 | inconclusive: 140%
7 | C/C(CCc1ccc2c(c1)OCO2)=N\N=C1\NC(=O)CC(C(=O)Nc2ccccc2F)S1 (stereo not given) | inactive: 97%
8 | COc1cccc2c(=O)n(CC(=O)Nc3ccccc3F)ccc12 | inconclusive: 108%
9 | O=C(CSc1nnc2ccccn12)Nc1ccccc1C(=O)O | inconclusive: 112%
10 | O=C(Cn1cnc2cc([N+](=O)[O-])ccc2c1=O)NC1CCS(=O)(=O)C1 (stereo not given) | inconclusive: 93%
11 | Cc1cccc(C(C)C)c1NC(=O)CSc1nncn1C | inconclusive: 105%
12 | COc1cc(/C=N/Nc2nn3cnnc3c3ccccc23)ccc1O | active: 75%
13 | CC(=O)NNC(=O)CCn1nnc(-c2ccc(Cl)cc2)n1 | inactive: 99%
14 | CC(=O)c1cccc(NC(=O)Cn2nc(-c3ccc(Cl)cc3)ccc2=O)c1 | inactive: 92%
15 | COC(=O)C1C(O)=C(C=Nc2ccc(N)cc2)C(=O)CC1(C)C (stereo not given) | inactive: 102%
16 | COc1cc2[nH]c(=O)n(CCC(=O)NCCCN3CCN(c4ccccc4F)CC3)c(=O)c2cc1OC | inconclusive: 100%
17 | CCN(CC)S(=O)(=O)c1ccc2oc(C(=O)N3CCCCCC3)c(C)c2c1 | inactive: 107%
18 | COc1ccc(C(=O)CN2C(=O)c3ccccc3C2=O)c(OC)c1C | inconclusive: 93%
19 | Cc1ccc(NC(=O)c2ccco2)c(NC(=O)c2cccs2)c1 | inconclusive: 108%
20 | O=P(O)(O)C(O)C(F)(F)C(F)(F)C(F)(F)C(F)F (stereo not given) | inconclusive: 110%
21 | COc1ccc(C(=O)N2CCOC2CNC(=O)C(=O)NCc2ccc(Cl)cc2)cc1 (stereo not given) | inconclusive: 96%
22 | COc1ccc(C(=O)N=c2sc3c(C)ccc(OC)c3n2C)cc1 | inactive: 99%
23 | COc1cc(-c2nn3c(-c4ccccn4)nnc3s2)cc(OC)c1OC | inconclusive: 90%

Row | SMILES | GTP binding activity (% of control)
24 | C/C=N/NC(=O)CCNC(=O)c1ccccc1 | inactive: 101%
25 | CCN(CC)S(=O)(=O)c1ccc2c(c1)nc(CCC(=O)Nc1ccccc1Cc1ccccc1)n2CC | inconclusive: 91%
26 | Cn1nc(C(=O)NCc2cccnc2)c2ccccc2c1=O | inactive: 100%
27 | COc1ccc(/C=N\NC(=O)CCc2c(C)n[nH]c2C)c(OC)c1OC | inconclusive: 106%
28 | CC1=C(C(=O)Nc2ccccc2)C(c2ccc(Cl)cc2)n2c(s/c(=C/c3cccc(OCC(=O)O)c3)c2=O)=N1 (stereo not given) | inconclusive: 78%
29 | COc1cc2[nH]c(=S)nc(NC3CCCC3)c2cc1OC | active: 51%
30 | Cc1ccc(S(=O)(=O)/N=C(\N)Nc2nc(C)c3ccccc3n2)cc1 | inactive: 95%
31 | Cc1cc(NC(=O)/C(C#N)=C/c2ccc(-c3ccc(SC(F)F)cc3)o2)n(-c2ccccc2)n1 | inconclusive: 129%
32 | O=C(COc1ncnc2cc([N+](=O)[O-])ccc12)NC(=O)NC1CCCCC1 | active: 75%
33 | COc1ccccc1NC(=O)C1=C(C)NC2=C(C(=O)CCC2)C1c1ccc2c(c1)OCO2 (stereo not given) | inconclusive: 104%
34 | Nc1nonc1C(=O)N/N=C/c1ccc(-c2cccc(C(=O)O)c2)o1 | inactive: 92%
35 | OCCC1CN(Cc2ccc3c(c2)CCO3)CCN1Cc1ccc(F)cc1 (stereo not given) | inconclusive: 103%
36 | c1ccc(-c2nnc3sc(-c4ccncc4)nn23)cc1 | inconclusive: 88%
37 | CCOc1c(Br)ccc2c1sc1nc[nH]c(=O)c12 | inactive: 96%
38 | Cc1ccc(NC(=O)C2CCCN(C(=O)c3ccc(Cl)cc3)C2)cc1S(=O)(=O)N1CCOCC1 (stereo not given) | inactive: 100%
39 | Cc1[nH]nc(SCC(=O)NCc2ccc(F)cc2)c1[N+](=O)[O-] | inactive: 104%
40 | COc1ccc(C(=O)NCCc2cc3ccc(C)c(C)c3[nH]c2=O)cc1OC | inconclusive: 90%
41 | CCn1c(=N)c(C(=O)NCCCOC)cc2c(=O)n3cccc(C)c3nc21 | inconclusive: 93%
42 | FC(F)(F)c1ccccc1NC(=S)NC1CCN(Cc2ccccc2)CC1 | inconclusive: 99%
43 | CSc1ncccc1C(=O)OCC(=O)N1CCOCC1 | inconclusive: 382%
44 | O=S(=O)(Nc1cccc(-c2cn3cccnc3n2)c1)c1ccc(-c2ccccc2)cc1 | inactive: 95%
45 | Cc1cc(/C=N/NC(=O)C(=O)NCc2ccccn2)c(C)n1-c1cccc(Br)c1 | inconclusive: 96%
46 | CCn1c(CNc2cccc(C(F)(F)F)c2)n[nH]c1=S | inactive: 104%

Row | SMILES | GTP binding activity (% of control)
47 | CSc1ccc(S(=O)(=O)Nc2ccc3c(c2)OCCO3)cc1 | inconclusive: 107%
48 | CC(C)c1[nH]nc2c1C1(CCN(Cc3ccccc3)CC1)C(C#N)=C(N)O2 | inconclusive: 111%
49 | CCN1C(=O)C(CC(=O)Nc2ccc(F)cc2)N(CCc2ccc(OC)cc2)C1=S (stereo not given) | inconclusive: 139%
50 | CCOC(=O)c1c(NC(=O)CSc2ncnc3[nH]ncc23)sc2c1CCC(C)C2 (stereo not given) | inconclusive: 96%
51 | CCOc1cc(/C=N/NC(=O)c2ccc(CN3CCOCC3)cc2)ccc1OC | inconclusive: 96%
52 | COc1ccc(-n2c(N)c(C(=O)NCc3ccco3)sc2=S)cc1 | inconclusive: 103%
53 | O=C(Cn1c(=S)[nH]c2ccccc2c1=O)N1CCN(c2ccc(F)cc2)CC1 | inactive: 97%
54 | Cc1nnnn1CC(=O)Nc1cccc([N+](=O)[O-])c1 | inactive: 104%
55 | CC(C)c1nc2sc3c(=O)[nH]cnc3c2c2c1CCC2 | inconclusive: 83%
56 | COc1ccc(NC(=O)COc2ccccc2C#N)c(S(=O)(=O)N2CCCCC2)c1 | inconclusive: 108%
57 | Cc1cc(-c2n[nH]c(=S)n2/N=C/C(Cl)=C/c2ccccc2)n[nH]1 | inactive: 85%
58 | C=CCn1c(-c2cc3cccc(OC)c3o2)n[nH]c1=S | inconclusive: 89%
59 | Cc1cccn2c(=O)c(/C=C3\SC(=S)N(CC(C)C)C3=O)c(NCCCOC(C)C)nc12 | inconclusive: 142%
60 | CN(C)CCN(C(=O)c1ccc(N2C(=O)CCC2=O)cc1)c1nc2cc3c(cc2s1)OCO3 | inconclusive: 110%
61 | CC(=O)OCC1=C(C(=O)O)N2C(=O)C(NC(=O)CCn3nc(C(F)(F)F)c(Br)c3C3CC3)C2SC1 (stereo not given) | inactive: 95%
62 | c1ccc(-c2onc3c2CCCC3)cc1 | inconclusive: 598%
63 | O=C(COc1ccc([N+](=O)[O-])cc1)Nn1cnnc1 | inconclusive: 92%
64 | CC(=O)NCCn1c(SCC(=O)OCc2ccccc2)nc2ccccc2c1=O | inconclusive: 99%
65 | O=C(CSc1nnc(-c2cccs2)o1)c1cccs1 | inactive: 96%
66 | Cc1nc2ccc(-c3nc4ccc(N)cc4[nH]3)cc2[nH]1 | inconclusive: 123%
67 | COc1ccc2nc(-n3c(O)c(C4=c5ccccc5=NC4=O)[nH]c3=S)sc2c1 | inactive: 92%
68 | COc1ccc(/C=N/NC(=O)CCSc2nc3ccccc3s2)cc1OC | inconclusive: 96%
69 | Cc1cccc(CN2C(=O)CCSc3ccc(Cl)cc32)c1 | inconclusive: 103%

Row | SMILES | GTP binding activity (% of control)
70 | Cc1ccc(C)c(C(C)NC(=O)CC#N)c1 (stereo not given) | inconclusive: 98%
71 | O=[N+]([O-])c1cc(/C=N/N/C(=N/c2ccccn2)c2ccccn2)ccc1O | inconclusive: 90%
72 | COc1ccc(-c2nc(-c3cccs3)c(-c3cccs3)[nH]2)cc1O | inconclusive: 81%
73 | COCCn1cnnc1SCC(=O)Nc1sccc1C(N)=O | inconclusive: 92%
74 | COc1ccccc1/C=C1/SC(=O)N(CCC(=O)Nc2ccc(S(=O)(=O)Nc3nccs3)cc2)C1=O | inconclusive: 94%
75 | N#CCCN1CCN(C2=NC(=O)/C(=C\c3cccs3)S2)CC1 | inactive: 99%
76 | CCOC(=O)/C(N=Nc1ccc(F)cc1)=C(/O)c1ccc([N+](=O)[O-])cc1 | inactive: 106%
77 | COc1ccc(C2C(C(=O)NCc3ccco3)CCC(=O)N2c2ccc(OC)cc2)cc1 (stereo not given) | inconclusive: 103%
78 | CCOC(=O)C1(Cc2ccccc2)CCCN(CCO)C1 (stereo not given) | inconclusive: 113%
79 | CCCNC(=O)c1ccc(C2SCC(=O)N2CCc2ccccc2)cc1 (stereo not given) | inactive: 103%
80 | Cc1cccc(N2CCN(C(=O)Cc3ccc(Br)cc3)CC2)c1C | inconclusive: 93%
81 | O=C(Cn1c2[n+](c3ccccc31)CC(O)CS2)c1ccccc1 (stereo not given) | inactive: 99%
82 | CCSc1nnc(-c2ccccc2N=Cc2c(C)[nH]n(-c3ccccc3)c2=O)c(=O)[nH]1 | inconclusive: 94%
83 | Clc1ccc(Cc2nc(-c3ccncc3)no2)cc1 | inconclusive: 97%
84 | Cc1nc2cc(NC(=O)NC3CC3)ccc2n1C | inconclusive: 97%
85 | CC(CC(C)C(=O)Nc1ccccc1C(C)(C)C)C(=O)O (stereo not given) | inactive: 102%
86 | CCOc1ccccc1Nc1nnc(SCC(=O)NC(Cc2c[nH]c3ccccc23)C(=O)O)s1 (stereo not given) | inconclusive: 87%
87 | C=CCNc1cc(N2CCCC2)ccc1[N+](=O)[O-] | inactive: 96%
88 | O=C(O)CC/C(=C\c1ccc(N2CCCC2)c([N+](=O)[O-])c1)c1nc2ccccc2s1 | inactive: 82%
89 | CC(C(=O)NN=C(c1ccccc1)c1ccccc1)N1CCCC1 (stereo not given) | inconclusive: 99%
90 | Cc1cc(=O)oc2c3c4c(cc12)OCCN4CCC3 | inconclusive: 91%
